# According to the supplement of paper PMC8728848:
# About 410 targets per protein were measured; listed, in parts, are those with the strongest signals and a random draw of the rest.
# Experiments:
# Assay in all cases: glycan array binding signal (z-score within array); higher = stronger binding
# Conditions in all cases: glycan notation: IUPAC condensed, linker removed
# [1] = target: GalNAc(a1-3)GalNAc
# Method in brief: (§1)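 The binding signal is a Z-score computed within each array. Data were drawn from 3228 arrays in the Consortium for Functional Glycomics database, restricted to those with a known protein sequence. Scores were averaged over arrays of the same protein sequence at different concentrations or buffers, and over linkers, and negative values can be taken as non-binding.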
# [2] = target: GalNAc(a1-3)GalNAc(a1-3)Gal(a1-4)Gal(b1-4)GlcNAc
# Method in brief: as §1
# [3] = target: GalNAc(a1-3)GalNAc(b1-3)Gal(a1-4)Gal(b1-4)Glc
# Method in brief: as §1
# [4] = target: GalNAc(b1-4)GlcNAc
# Method in brief: as §1
# [5] = target: GalNAc(b1-4)GlcNAc(b1-2)Man
# Method in brief: as §1
# [6] = target: GalNAc(b1-4)GlcNAc(b1-2)Man(a1-3)[GalNAc(b1-4)GlcNAc(b1-2)Man(a1-6)]Man(b1-4)GlcNAc(b1-4)GlcNAc
# Method in brief: as §1
# [7] = target: GalNAc(b1-4)GlcNAc(b1-3)GalNAc(b1-4)GlcNAc
# Method in brief: as §1
# [8] = target: GalNAc(b1-4)GlcNAc6S
# Method in brief: as §1
# [9] = target: GlcNAc(b1-2)[GlcNAc(b1-4)]Man(a1-3)[GlcNAc(b1-4)][GlcNAc(b1-2)[GlcNAc(b1-6)]Man(a1-6)]Man(b1-4)GlcNAc(b1-4)GlcNAc
# Method in brief: as §1
# [10] = target: GlcNAc(b1-3)Gal(b1-4)GlcNAc(b1-3)Gal(b1-4)GlcNAc(b1-2)Man(a1-3)[GlcNAc(b1-3)Gal(b1-4)GlcNAc(b1-3)Gal(b1-4)GlcNAc(b1-2)Man(a1-6)]Man(b1-4)GlcNAc(b1-4)GlcNAc
# Method in brief: as §1
# [11] = target: GlcNAc(b1-3)Gal(b1-4)GlcNAc(b1-3)Gal(b1-4)GlcNAc(b1-2)[GlcNAc(b1-3)Gal(b1-4)GlcNAc(b1-3)Gal(b1-4)GlcNAc(b1-6)]Man(a1-6)[GlcNAc(b1-3)Gal(b1-4)GlcNAc(b1-3)Gal(b1-4)GlcNAc(b1-2)Man(a1-3)]Man(b1-4)GlcNAc(b1-4)[Fuc(a1-6)]GlcNAc
# Method in brief: as §1
# [12] = target: GlcNAc(b1-3)[GlcNAc(b1-6)]GlcNAc(b1-4)GlcNAc
# Method in brief: as §1
# [13] = target: GlcNAc(b1-4)GlcNAc(b1-4)GlcNAc(b1-4)GlcNAc(b1-4)GlcNAc
# Method in brief: as §1
# [14] = target: Man(a1-2)Man(a1-3)[Man(a1-2)Man(a1-6)]Man(a1-6)[Man(a1-2)Man(a1-2)Man(a1-3)]Man(b1-4)GlcNAc(b1-4)GlcNAc
# Method in brief: as §1
# [15] = target: Neu5Ac(a2-3)Gal(b1-3)GlcNAc(b1-2)Man(a1-3)[Neu5Ac(a2-3)Gal(b1-3)GlcNAc(b1-2)Man(a1-6)]Man(b1-4)GlcNAc(b1-4)GlcNAc
# Method in brief: as §1
# [16] = target: Neu5Ac(a2-3)Gal(b1-3)[Fuc(a1-4)]GlcNAc
# Method in brief: as §1
# [17] = target: Neu5Ac(a2-3)Gal(b1-3)[Fuc(a1-4)]GlcNAc(b1-3)Gal(b1-4)[Fuc(a1-3)]GlcNAc
# Method in brief: as §1
# [18] = target: Neu5Ac(a2-3)Gal(b1-3)[Neu5Ac(a2-6)]GalNAc
# Method in brief: as §1
# [19] = target: Neu5Ac(a2-3)Gal(b1-4)GlcNAc(b1-2)Man(a1-3)[Neu5Ac(a2-3)Gal(b1-4)GlcNAc(b1-2)Man(a1-6)]Man(b1-4)GlcNAc(b1-4)[Fuc(a1-6)]GlcNAc
# Method in brief: as §1
# [20] = target: Neu5Ac(a2-3)Gal(b1-4)GlcNAc(b1-3)Gal
# Method in brief: as §1
# [21] = target: Neu5Ac(a2-3)Gal(b1-4)GlcNAc(b1-3)Gal(b1-3)GlcNAc
# Method in brief: as §1
# [22] = target: Neu5Ac(a2-6)Gal(b1-4)GlcNAc(b1-2)Man(a1-3)[Neu5Ac(a2-3)Gal(b1-4)GlcNAc(b1-2)Man(a1-6)]Man(b1-4)GlcNAc(b1-4)GlcNAc
# Method in brief: as §1
# [23] = target: Neu5Ac(a2-6)Gal(b1-4)GlcNAc(b1-2)[Neu5Ac(a2-6)Gal(b1-4)GlcNAc(b1-6)]Man(a1-6)[Neu5Ac(a2-6)Gal(b1-4)GlcNAc(b1-2)Man(a1-3)][GlcNAc(b1-4)]Man(b1-4)GlcNAc(b1-4)GlcNAc
# Method in brief: as §1
# [24] = target: Neu5Ac(a2-6)Gal(b1-4)GlcNAc(b1-3)Gal(b1-4)GlcNAc
# Method in brief: as §1
# [25] = target: Neu5Ac(a2-6)Gal(b1-4)GlcNAc(b1-6)[Gal(b1-3)]GalNAc
# Method in brief: as §1
# [26] = target: Neu5Ac9Ac(a2-3)Gal(b1-3)GlcNAc
# Method in brief: as §1
binder,measurement,setting,value
"SBA (Glycine max), P05046 (protein) MATSKLKTQNVVVSLSLTLTLVLVLLTSKANSAETVSFSWNKFVPKQPNMILQGDAIVTSSGKLQLNKVDENGTPKPSSLGRALYSTPIHIWDKETGSVASFAASFNFTFYAPDTKRLADGLAFFLAPIDTKPQTHAGYLGLFNENESGDQVVAVEFDTFRNSWDPPNPHIGINVNSIRSIKTTSWDLANNKVAKVLITYDASTSLLVASLVYPSQRTSNILSDVVDLKTSLPEWVRIGFSAATGLDIPGESHDVLSWSFASNLPHASSNIDPLDLTSFVLHEAI",glycan array binding signal (z-score),[1],4.56
same,glycan array binding signal (z-score),[2],6.24
same,glycan array binding signal (z-score),[3],5.16
same,glycan array binding signal (z-score),[4],4.2
same,glycan array binding signal (z-score),[5],5.15
same,glycan array binding signal (z-score),[6],4.99
same,glycan array binding signal (z-score),[7],9.42
same,glycan array binding signal (z-score),[8],3.67
same,glycan array binding signal (z-score),[9],-0.155
same,glycan array binding signal (z-score),[10],0.118
same,glycan array binding signal (z-score),[11],-0.163
same,glycan array binding signal (z-score),[12],-0.268
same,glycan array binding signal (z-score),[13],-0.143
same,glycan array binding signal (z-score),[14],-0.158
same,glycan array binding signal (z-score),[15],0.046
same,glycan array binding signal (z-score),[16],-0.108
same,glycan array binding signal (z-score),[17],-0.255
same,glycan array binding signal (z-score),[18],-0.167
same,glycan array binding signal (z-score),[19],-0.223
same,glycan array binding signal (z-score),[20],-0.392
same,glycan array binding signal (z-score),[21],-0.2
same,glycan array binding signal (z-score),[22],-0.112
same,glycan array binding signal (z-score),[23],-0.344
same,glycan array binding signal (z-score),[24],-0.103
same,glycan array binding signal (z-score),[25],-0.269
same,glycan array binding signal (z-score),[26],-0.185
